From article PMC4336329 (PLoS ONE, 2015)
Hit rate of the full screen: of about 310,000 compounds, about 14,000 (4.5%) showed an effect of 50% or more. Effects have a minus sign here. This is one part of the list.

Each compound was assayed against human ether-à-go-go-related gene (hERG) potassium channel (human, UniProt Q12809) (assay: primary screen, population patch clamp on CHO cells stably expressing hERG).
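Further: peak tail current of the secondary pulse compared with the same well before compound.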

human ether-à-go-go-related gene (hERG) potassium channel, sequence (Q12809 whole entry, looked up): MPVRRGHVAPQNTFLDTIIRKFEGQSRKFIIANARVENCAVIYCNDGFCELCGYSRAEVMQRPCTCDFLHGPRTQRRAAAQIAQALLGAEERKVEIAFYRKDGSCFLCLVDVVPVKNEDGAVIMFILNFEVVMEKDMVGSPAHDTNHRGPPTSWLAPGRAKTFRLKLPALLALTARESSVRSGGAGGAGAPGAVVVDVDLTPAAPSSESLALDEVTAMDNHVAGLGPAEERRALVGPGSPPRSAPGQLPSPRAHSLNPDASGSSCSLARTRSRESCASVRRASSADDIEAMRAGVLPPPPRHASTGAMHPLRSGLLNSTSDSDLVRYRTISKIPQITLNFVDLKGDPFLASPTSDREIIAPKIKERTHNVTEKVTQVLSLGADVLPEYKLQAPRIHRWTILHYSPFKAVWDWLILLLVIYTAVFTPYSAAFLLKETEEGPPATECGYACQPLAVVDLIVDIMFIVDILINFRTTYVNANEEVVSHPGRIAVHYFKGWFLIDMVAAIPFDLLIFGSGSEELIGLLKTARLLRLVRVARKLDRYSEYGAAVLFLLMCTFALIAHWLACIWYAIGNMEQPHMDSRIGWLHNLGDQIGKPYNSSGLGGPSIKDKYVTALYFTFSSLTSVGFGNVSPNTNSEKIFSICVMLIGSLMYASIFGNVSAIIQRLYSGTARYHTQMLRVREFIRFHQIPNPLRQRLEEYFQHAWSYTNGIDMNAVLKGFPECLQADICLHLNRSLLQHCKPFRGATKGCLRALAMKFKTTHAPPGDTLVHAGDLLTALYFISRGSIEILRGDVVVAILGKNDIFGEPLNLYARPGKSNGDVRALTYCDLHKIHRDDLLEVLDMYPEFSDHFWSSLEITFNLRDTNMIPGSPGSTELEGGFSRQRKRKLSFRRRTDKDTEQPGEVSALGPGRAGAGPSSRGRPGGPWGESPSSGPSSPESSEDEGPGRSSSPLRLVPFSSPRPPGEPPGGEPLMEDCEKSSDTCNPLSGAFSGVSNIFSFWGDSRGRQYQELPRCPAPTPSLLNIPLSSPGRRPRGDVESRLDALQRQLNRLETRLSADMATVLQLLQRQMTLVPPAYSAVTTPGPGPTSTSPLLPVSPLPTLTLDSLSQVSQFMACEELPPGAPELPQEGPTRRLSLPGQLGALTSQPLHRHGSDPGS

Compound	hERG current change (%, negative = inhibition) at 10uM
CCOC(=O)c1cnn(-c2ccccc2)c1NC(=O)c1ccccc1	2.12%
O=C(NCc1cccs1)c1ccc([N+](=O)[O-])cc1	-31.2%
CC(C)c1ccc(OCC(=O)Nc2cccc3c2CCCC3)cc1	0.81%
O=C(CSC1CCCCC1)Nc1nccs1	-4.39%
CS(=O)(=O)c1ccc(Cl)c(NC(=O)Cc2c(F)cccc2Cl)c1	31.9%
O=C1CC(=O)N(Cc2ccccc2)C(=S)N1	10.6%
O=C(NC1CCCCC1)c1ccc(CNc2nc(=S)[nH]c3ccccc23)cc1	5.52%
O=C(c1ccc(F)cc1)N1CCN(c2ccc([N+](=O)[O-])c(N3CCOCC3)c2)CC1	-58.3%
O=C(O)Cn1cc(C(=O)c2ccco2)c2ccccc21	18.6%
CCC(=O)NS(=O)(=O)c1cccnc1Nc1ccc(Cl)cc1	13.9%
CCOC(=O)c1c(C)[nH]c(N=Nc2cccc(C)c2)c1C	0.74%
CCCCOC(=O)COc1ccc(Cl)cc1Cl	13.3%
COc1ccc(N=C(C)C2=C(O)c3ccccc3C2=O)cc1	2.67%
Cc1cccc(NC(NC(=O)c2ccccn2)C(Cl)(Cl)Cl)c1 (stereo not drawn)	-38.3%
COc1ccc(C(=O)NCc2nnc(SCC(=O)N3CCOCC3)o2)cc1	13.5%
O=C(Nc1ccccc1C(=O)NCCCN1CCOCC1)c1ccc(Cl)cc1	-15.5%
COc1cccc(C(C(=O)NC(C)(C)C)N(C(=O)CCC(=O)Nc2cc(C)on2)C(C)C)c1OC (stereo not drawn)	17.1%
O=C(O)c1ccccc1NC(=O)c1cc2ccccc2oc1=O	19.1%
COc1cccc(NC(=O)Cn2cc3c(n2)CCCCC3)c1	-14.7%

Compound	hERG current change (%, negative = inhibition) at 10uM
O=C(Cn1c(COc2ccccc2)nc2ccccc21)Nc1cc(Cl)cc(Cl)c1	29.3%
COc1ccc(CNC(=O)Cn2nc(C(F)(F)F)cc2C)cc1	6.77%
CSCCC(NC(=O)c1ccco1)C(=O)OCC(=O)N(Cc1ccccc1)C(C)(C)C (stereo not drawn)	-31.1%
Cc1ccccc1CSCCNC(=S)Nc1ccccc1	11.2%
CCc1nc(N2CCN(C(=O)c3ccco3)CC2)c2c3c(sc2n1)CCCC3	-65.3%
COCCN(Cc1ccccc1)C(=O)c1ccc(C(=O)c2ccccc2)cc1	-21.8%
COc1ccccc1N1CCN(C(=O)C(Sc2ccccc2)c2ccccc2)CC1 (stereo not drawn)	-6.52%
O=C(Nc1ccc2c(c1)OCO2)N1CCOCC1	-3.44%
O=C(c1cccc(C(F)(F)F)c1)N1CCOC12CCN(c1ncc(C(F)(F)F)cc1Cl)CC2	18.9%
O=C(COC(=O)C1CCN(S(=O)(=O)c2ccc3c(c2)OCCO3)CC1)Nc1cc(C(F)(F)F)ccc1Cl	-11.7%
Cc1ccccc1OCc1nnc2n1CC(C)S2 (stereo not drawn)	7.43%
CC1(C)NC(=O)N(CCOCCOc2ccccc2-c2ccccc2)C1=O	-14.7%
CC1=N/C(=C\c2ccc(OC(C)C)cc2)C(=O)N1c1ccc(C(=O)O)cc1	12.4%
CCC(=O)C1CCCN(C(=O)CCc2nnc(C3(c4ccc(Cl)cc4)CCC3)o2)C1 (stereo not drawn)	-38.5%
COc1ccc2c(c1)[C@H]1[C@H](CO2)[C@H](c2ccccc2)[C@]2(C)C(=O)Nc3cc(OC)c(OC)cc3C(=O)N12	8.37%
CC1(CCC(=O)N2CCCC(N3CCN(c4ccc(F)cc4)CC3)C2)CC1 (stereo not drawn)	-64.7%
CC(=O)c1cc(CN2CCN(CCC(C)C)C(CCO)C2)cs1 (stereo not drawn)	-5.53%
COC(=O)c1c(C)[nH]c(C)c1-c1ccccc1	-5.37%
CCOC(=O)c1ccc(CC2SC(N)=NC2=O)cc1 (stereo not drawn)	2.63%

Compound	hERG current change (%, negative = inhibition) at 10uM
CSc1ccc(Cl)c(C(=O)Nc2ccc(Cl)cn2)c1	1.42%
COC(=O)c1cc(Cl)cc(Cl)c1OS(=O)(=O)N(C)C	-21.3%
CCOC(=O)C1(Cc2ccccc2Cl)CCN(C(=O)CN2CCOC2=O)CC1	8.88%
CCCNS(=O)(=O)c1cc2c3c(c1)C(C)C(=O)N3CCC2 (stereo not drawn)	5.95%
O=C(CNC(=O)C(c1ccccc1)c1ccccc1)N/N=C/c1ccc(O)c([N+](=O)[O-])c1	-4.11%
O=c1sc2ccccc2c(N2CCOCC2)c1[N+](=O)[O-]	20.9%
O=C(O)c1ccccc1C(=O)OCc1ccccc1	10.7%
COc1ccccc1CCC(=O)OCC(=O)Nc1ccc(C(N)=O)cc1	12.3%
O=C(COC(=O)CC1CCCC1)Nc1cc2c(cc1Cl)C(=O)c1ccccc1C2=O	-6.56%
Cc1cc(C)c(-c2cc(C)nc3ncnn23)c(C)c1	7.75%
O=C(O)c1cccc2c1C(=O)c1ccccc1C2=O	19.7%
Cc1ccc(C2=NN(CC(=O)NCCN(CC(C)C)CC(C)C)C(=O)CC2)cc1	-50.2%
Cc1ccc(S(=O)(=O)n2ccc(-c3ccc(OCc4c(F)cccc4Cl)cc3)n2)cc1	14.9%
O=C(CC1C(=O)NCCN1C1CCCC1)NCc1cccc(OC(F)(F)F)c1 (stereo not drawn)	-21.1%
O=S(=O)(c1ccc2oc3ccccc3c2c1)N1CCCC1	5.64%
Cc1ccc(S(=O)(=O)NCCNC(C)c2ccc(Br)cc2)cc1 (stereo not drawn)	-42.5%
COc1ccc(NC(=O)CN(C)C(=O)c2oc3ccccc3c2C)cc1	-14.3%
N#CCc1cc2ccc3cccc4ccc(c1)c2c34	16.2%
CCc1ccc(NC(=O)CSc2nc(=O)n(CCCN3CCOCC3)c3c2CCC3)cc1	-40%
